Assay results from patent US4363922A, “Esters of antibiotic nodusmicin” (priority 1981, dated 1982).

Tests used:
S.aureus UC 80 = assay: Dipped disc agar diffusion assay, S. aureus; set-up: key: NZ: no zone; conditions: 12.7 mm paper disc, 16 hours
S.lutea UC-130 = assay: Dipped disc agar diffusion assay, S. lutea; set-up: key: NZ: no zone; conditions: 12.7 mm paper disc, 16 hours

Molecule: 9,11-O-Dipicolinoyl-
- Agar Diffusion 1 mg./ml. S.aureus UC 80 (inhibition zone) (S.aureus UC 80): NZ
- Agar Diffusion 1 mg./ml. S.lutea UC-130 (inhibition zone) (S.lutea UC-130): NZ

Molecule: COC1CC2C=CC3C4OC2(C(C)=CC(C)C(C(C)O)OC1=O)C3C(O)C(C)C4O (stereo not drawn) [U-59,761, nodusmicin]
- Agar Diffusion 1 mg./ml. S.aureus UC 80 (inhibition zone) (S.aureus UC 80): NZ

Molecule: COC1CC2C=CC3C4OC2(C(C)=CC(C)C(C(C)O)OC1=O)C3C(OC(=O)c1ccco1)C(C)C4O (stereo not drawn) [U-60,905, 11-O--Furoyl-]
- Agar Diffusion 1 mg./ml. S.aureus UC 80 (inhibition zone) (S.aureus UC 80): NZ

Molecule: COC1CC2C=CC3C4OC2(C(C)=CC(C)C(C(C)O)OC1=O)C3C(O)C(C)C4OC(=O)c1cccnc1 (stereo not drawn) [U-60,906, 9-O--Nicotinoyl-]
- Agar Diffusion 1 mg./ml. S.aureus UC 80 (inhibition zone) (S.aureus UC 80): NZ

Molecule: COC1CC2C=CC3C4OC2(C(C)=CC(C)C(C(C)O)OC1=O)C3C(O)C(C)C4OC(=O)c1ccccn1 (stereo not drawn) [U-60,909, 9-O--Picolinoyl-]
- Agar Diffusion 1 mg./ml. S.aureus UC 80 (inhibition zone) (S.aureus UC 80): NZ

Molecule: COC1CC2C=CC3C4OC2(C(C)=CC(C)C(C(C)O)OC1=O)C3C(O)C(C)C4OC(=O)c1ccncc1 (stereo not drawn) [U-60,925, 9-O--Isonicotinoyl]
- Agar Diffusion 1 mg./ml. S.aureus UC 80 (inhibition zone) (S.aureus UC 80): NZ

Molecule: COC1CC2C=CC3C4OC2(C(C)=CC(C)C(C(C)O)OC1=O)C3C(O)C(C)C4OC(=O)c1cccn1C (stereo not drawn) [U-60,988, 9-O--N--Methylpyrrole-2-carbonyl-]
- Agar Diffusion 1 mg./ml. S.aureus UC 80 (inhibition zone) (S.aureus UC 80): NZ

Molecule: COC1CC2C=CC3C4OC2(C(C)=CC(C)C(C(C)O)OC1=O)C3C(O)C(C)C4OC(=O)c1ccc([N+](=O)[O-])o1 (stereo not drawn) [U-60,990, 9-O--5-Nitrofuroyl]
- Agar Diffusion 1 mg./ml. S.aureus UC 80 (inhibition zone) (S.aureus UC 80): NZ

Molecule: COC1CC2C=CC3C4OC2(C(C)=CC(C)C(C(C)O)OC1=O)C3C(O)C(C)C4OC(=O)c1cnccn1 (stereo not drawn) [U-61,264, 9-O--Pyrrazine-2-carbonyl]
- Agar Diffusion 1 mg./ml. S.aureus UC 80 (inhibition zone) (S.aureus UC 80): NZ

Molecule: COC1CC2C=CC3C4OC2(C(C)=CC(C)C(C(C)O)OC1=O)C3C(O)C(C)C4OC(=O)c1cc2ccccc2[nH]1 (stereo not drawn) [U-61,273, 9-O--Indole-2-carbonyl-]
- Agar Diffusion 1 mg./ml. S.aureus UC 80 (inhibition zone) (S.aureus UC 80): NZ

Molecule: COC1CC2C=CC3C4OC2(C(C)=CC(C)C(C(C)O)OC1=O)C3C(O)C(C)C4OC(=O)c1ccc([N+](=O)[O-])[nH]1 (stereo not drawn) [U-61,427, 9-O--5-Nitropyrrole-2-carbonyl-]
- Agar Diffusion 1 mg./ml. S.aureus UC 80 (inhibition zone) (S.aureus UC 80): NZ
